According to US12637513B2, “Method of treating cancer by administering an inhibitor of erythropoietin receptor activity comprising either erythropoietin receptor or erythropoietin protein” (ImmunEdge, Inc., priority 2022, dated 2026):

Molecular target: T1, EPO/EPOR interaction (EPOR-CD131-Fc and EPO) (Homo sapiens, UniProt P19235+P32927)
T1 construct: Chimeric Fc fusion proteins of the extracellular domains of human EPOR and human CD131; purchased Sino Biological CT010-H02H
T1 sequence (P19235 25-250 limits assumed): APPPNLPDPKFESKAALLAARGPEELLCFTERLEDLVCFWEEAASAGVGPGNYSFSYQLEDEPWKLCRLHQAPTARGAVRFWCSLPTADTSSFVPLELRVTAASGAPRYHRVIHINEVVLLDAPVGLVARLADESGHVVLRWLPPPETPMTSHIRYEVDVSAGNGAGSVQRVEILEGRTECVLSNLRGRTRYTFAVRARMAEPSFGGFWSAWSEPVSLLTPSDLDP
T1 sequence (P32927 17-443 limits assumed): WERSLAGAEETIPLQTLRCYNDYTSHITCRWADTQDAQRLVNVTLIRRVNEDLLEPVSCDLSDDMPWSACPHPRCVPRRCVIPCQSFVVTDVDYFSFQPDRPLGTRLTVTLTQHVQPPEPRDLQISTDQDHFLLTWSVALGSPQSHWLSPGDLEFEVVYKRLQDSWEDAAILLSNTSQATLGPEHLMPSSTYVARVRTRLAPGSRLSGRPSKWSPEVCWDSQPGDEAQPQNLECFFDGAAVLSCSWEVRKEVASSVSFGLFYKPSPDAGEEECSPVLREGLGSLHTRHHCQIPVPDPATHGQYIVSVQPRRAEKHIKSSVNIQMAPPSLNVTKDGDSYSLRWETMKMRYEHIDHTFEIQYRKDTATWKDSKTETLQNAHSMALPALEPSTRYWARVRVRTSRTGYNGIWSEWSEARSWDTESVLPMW
Assay: Octet blocking of the EPO/EPOR interaction by hybridoma supernatants
Format: binding
Settings: EPO 10 nM

blocking of the EPO/EPOR interaction: did not block
B1: EPORab - M38: hybridoma antibody clone, VH/VK in Table 10 (antibody, V domains shown)
VH: QVQLVESGGGVVQPGRSLRLSCAASGFTFSSYGMHWVRQAPGKGLEWVAFIWYDGRNKNYVDSVKGRFTISRDNSKNTLYLQMNSLRAEDTAVYYCARDRGDYVFDYWGQGTLVTVSS
VL: DIQMTQSPSSLSASVGDRVTITCQASQDIRNYLNWYQQKPGKAPKLLIYDASNLETGVPSRFSGSGSGTDFTFTISSLKPEDIATYYCQQYDNLLFTFGPGTKVDIK
